PubChem BioAssay AID463173 (ICCB-Longwood Screening Facility, Harvard Medical School, 2010)
Out of some 52,000 compounds screened, about 4,300 (8.3%) were called active. Cut-off read from the data, not from the text of the source: active = survival mostly below about 52% (no sharp cut-off); inactive = mostly above about 56%. The list shows a part of the results.

test system: DeltatarO mutant; experiment: growth inhibition of S. aureus wild type versus tarO mutant, primary screen, teichoic acid synthesis inhibitors, RN4220, OD600 (AID 463173); conditions: OD600, 18 h, active compounds read low, screened at 18.75 µg/mL (by protocol)

SMILES | survival
COc1ccc(-c2[nH]nc3nc(-c4cc(OC)c(OC)c(OC)c4)cc(C(=O)O)c23)cc1 | inactive: 90%
Cc1nc2ccccc2c(=O)n1-c1ccc(NC(=O)c2ccc([N+](=O)[O-])cc2)cc1 | inactive: 71%
COc1ccc(N2CCN(C(=O)CCc3c(C)nc4cc(-c5ccc(Cl)cc5)nn4c3C)CC2)cc1 | inactive: 116%
Cc1ccc2cc(CNCc3cccnc3)c(=O)[nH]c2c1 | inactive: 97%
CCOc1ccc(NCc2cccn2-c2nnc(N3CCC(C(=O)NCCc4ccc(OC)c(OC)c4)CC3)s2)cc1 | inactive: 87%
O=C(CN1CCOCC1)N(c1ccccc1)c1ccc2ccccc2c1 | inactive: 84%
CCc1ccc(C2CC(=O)Nc3c2c(C)nn3-c2nc(C)cc(C)n2)cc1 (stereo not given) | inactive: 57%
CCOc1ccc(-c2nnc(SCC(=O)NCc3ccccc3)nc2-c2ccc(OCC)c(OC)c2)cc1OC | inactive: 80%
Cc1ccc(C)c(N2CCN(S(=O)(=O)c3c(C)nc4sccn4c3=O)CC2)c1 | inactive: 92%
CCOc1ccccc1NC(=O)N1CCN(Cc2nc3ccc(C)cc3o2)CC1 | inactive: 76%
C/C=C/C(=O)Oc1ccc(Cl)cc1 | inactive: 88%
CCCCOc1cccc(C(=O)Nc2ccc3oc(-c4cccnc4)nc3c2)c1 | active: 46%
Cc1cc(C)cc(-n2c(SCC(N)=O)nc3c(oc4ccccc43)c2=O)c1 | inactive: 97%
COc1cccc(Nc2c3c(nc4nncn24)CCC3)c1 | inactive: 71%
CCOc1ccccc1NC(=O)Cn1cnc2sc(C)c(S(=O)(=O)N3CCC(C)CC3)c2c1=O | inactive: 65%
O=C(NCc1ccccc1Cl)c1cc2ccccc2o1 | inactive: 74%
COc1cc(OC)cc(C(=O)Nc2ccc3c(c2)N(C2CCCC2)C(=O)c2ccccc2S3)c1 | inactive: 119%
O=C(CSc1nc2ccccc2nc1Cc1ccccc1)N1CCCCC1 | inactive: 83%
CCc1cccc(NC(=O)CCS(=O)(=O)c2cc(Br)cc3c2N(C(C)=O)CC3)c1 | inactive: 144%
COc1cc(-c2nc3ncccn3c2Nc2ccc(C)cc2C)ccc1O | inactive: 132%
CC(c1ccccc1F)n1cc(C(=O)NCCCn2ccnc2)nn1 (stereo not given) | inactive: 96%
Cc1ccc(C)c(NC(=O)CSc2nc(=O)n(Cc3ccccn3)c3c2CCC3)c1 | inactive: 80%
Cc1cccc(N2CCN(S(=O)(=O)c3ccc(F)c(C(=O)Nc4ccc(C(C)C)cc4)c3)CC2)c1C | inactive: 94%

SMILES | survival
CCOc1ccc(C(=O)C(CC(CN2CCOCC2)C(=O)c2ccc(OCC)cc2)CN2CCOCC2)cc1 (stereo not given) | inactive: 104%
COc1ccc(OC)c(Nc2ncnc3c2cnn3-c2ccc(C)cc2)c1 | inactive: 55%
COc1ccc(-c2noc(CN3CCN(c4cccc(Cl)c4)CC3)n2)cc1 | active: 13%
CCN(CC)c1nn2c(=O)c(C(=O)NCc3cccc(C)c3)cnc2s1 | inactive: 76%
COc1ccc(Cn2c(SCc3ccc(C(=O)NCCc4ccccc4)cc3)nc3cccnc32)cc1 | inactive: 75%
Cn1c(=O)n(C/C=C/c2ccccc2)c(=O)c2c1nc1n2CCN1c1ccc(Cl)cc1 | inactive: 77%
CCn1cc(S(=O)(=O)c2ccc(C)cc2)c(=O)c2cc(F)c(N3CCCCCC3)cc21 | inactive: 90%
CCOC(=O)c1[nH]c(C)c(CCC(=O)NCc2ccccc2C)c1C | inactive: 102%
Cn1nc(-c2ccccc2F)c2cc(C(=O)N3CCN(c4ccc(F)cc4)CC3)sc21 | inactive: 51%
Cc1nn(C(=O)c2cccc(F)c2)c(C)c1S(=O)(=O)N1CCCCCC1 | inactive: 83%
O=C1CCCN1Cc1ncnn1-c1ccccc1 | inactive: 113%
CCC(C)NC(=O)Cn1c(=O)n(Cc2ccc(C(=O)NCc3ccccc3OC)cc2)c(=O)c2ccccc21 (stereo not given) | inactive: 84%
CCCN1CCN(CCCNC(=O)Cn2c(-c3cccs3)cc3ccccc32)CC1 | inactive: 85%
Cc1ccc(NC(=O)CSc2ncnc3c2sc2ccccc23)cc1C | inactive: 113%
Cn1cc(-c2cc3n(n2)CCC(=O)N3CC(=O)O)c2ccccc21 | inactive: 103%
Cc1ccccc1OCC(=O)N(Cc1ccc(N(C)C)cc1)CC1CCCO1 (stereo not given) | inactive: 97%
Cc1cccc(CNC(=O)CCCN2C(=O)CCn3nc(-c4cn(C)c5ccccc45)cc32)c1 | active: -5%
CCN(CC)c1ccc(NC(=O)c2cc(S(=O)(=O)N3CCc4ccccc43)cn2C)c(C)c1 | inactive: 66%
CCN1CCN(c2c(S(=O)(=O)c3ccccc3)cnc3ccc(Cl)cc23)CC1 | inactive: 124%
O=C(C1CCC1)N1CCCc2cc(S(=O)(=O)Nc3ccc(F)cc3)ccc21 | inactive: 80%
COc1ccccc1N(CC(=O)Nc1ccc(C)c(Cl)c1)S(=O)(=O)c1ccc(C)cc1 | inactive: 57%
CCOc1ccc(CC(=O)NC2CC(=O)N(c3ccc(C)c(C)c3)C2)cc1 (stereo not given) | inactive: 92%
C#CC(C)(CC)NC(=O)c1cc2c(n(-c3ccc(Cl)cc3)c1=O)CC(C)(C)CC2=O (stereo not given) | inactive: 67%

SMILES | survival
COCCn1c(C)cc(O)c(C(c2ccc(C)cc2)N2CCCCC2)c1=O (stereo not given) | inactive: 86%
CC(=O)N1CCc2cc(Br)cc(S(=O)(=O)N3CCN(c4cc(C)ccc4C)CC3)c21 | inactive: 78%
COc1ccc(Cl)cc1NC(=O)c1cc2ccc3ccc(C)[nH]c3c2n1 | inactive: 78%
O=C(c1cc(-c2ccc(Cl)cc2)on1)N(Cc1cccc(F)c1)Cc1ccco1 | inactive: 79%
Cn1c(=O)c2nc(SCC(=O)Nc3cc(Cl)cc(Cl)c3)n(C)c2n(C)c1=O | inactive: 115%
CCc1ccc(NC(=O)CSc2c(C)cnc3c2c(=O)n(C)c(=O)n3C)cc1 | inactive: 83%
Cc1nc2sccn2c(=O)c1S(=O)(=O)NCc1ccc(F)cc1 | inactive: 51%
Cc1ccc(Cn2c(CNS(=O)(=O)c3ccc(C(C)(C)C)cc3)nc3cccnc32)cc1 | inactive: 108%
COc1cc(NC(=O)c2cc(-c3cccs3)on2)c(OC)cc1Cl | inactive: 52%
COc1ccc(CNc2nc(-c3ccco3)nn2C(=O)c2ccccc2Cl)cc1 | inactive: 56%
O=C(O)CCC(=O)N1CCN(Cc2ccc3c(c2)OCO3)CC1 | inactive: 75%
Cc1ccc(OCC(=O)OCc2cc(=O)n3nc(-c4cccs4)sc3n2)cc1 | inactive: 96%
COc1cccc(NC(=O)C2CCCN(c3nnc(-n4c(C)ccc4C)s3)C2)c1 (stereo not given) | inactive: 79%
COCCCn1c(=N)c(S(=O)(=O)c2ccccc2)cc2c(=O)n3cc(C)ccc3nc21 | inactive: 68%
CC(C(=O)O)n1nc2ccccc2n1 (stereo not given) | inactive: 95%
COc1ccccc1CNC(=O)CCCn1nc(C)c2sc3ccccc3c2c1=O | inactive: 86%
Cc1ccccc1OCC(=O)Nc1ccc2nc(SCC(=O)N(C)c3ccccc3)sc2c1 | inactive: 62%
CC(C)(C)OC(=O)N1CCC(c2c(C(=O)N3CCN(c4ccc(Cl)cc4)CC3)cnn2-c2ccc(F)cc2F)CC1 | inactive: 84%
COCCCNC(=O)c1cnn(-c2ccccc2Cl)c1C1CCN(C(=O)OC(C)(C)C)CC1 | inactive: 77%
CC(=O)Nc1ccc(Cl)cn1 | inactive: 86%
COc1ccc(CNC(=O)C2CCN(C(=O)c3ccc(-n4ccc5ccccc54)s3)CC2)cc1 | inactive: 90%
COc1ccc(CCNC(=O)c2cccc(-n3c(C)nc4cccnc43)c2)cc1OC | inactive: 72%
COc1ccc(-c2cc3nc(-c4ccc(Br)cc4)cc(C(F)(F)F)n3n2)cc1 | inactive: 51%

SMILES | survival
COC(=O)c1ccc(NC(=O)CSc2cn(CC(=O)N3CCCCCC3)c3ccccc23)cc1 | inactive: 68%
COc1ccc(NC(=O)C(=O)NCCc2ccc(OC)c(OC)c2)c(OC)c1 | inactive: 133%
Cc1c(NC(=O)c2cc(-c3ccc(O)cc3)on2)c(=O)n(-c2ccccc2)n1C | inactive: 169%
COc1ccccc1CNc1nc2ccccc2c2nc(-c3cccnc3)nn12 | active: 48%
O=C(COc1ccccc1Cl)OCc1cc(=O)n2nc(C3CC3)sc2n1 | inactive: 84%
Cc1ccc(N2CC(C(=O)Nc3ccc(Cl)cc3Cl)CC2=O)cc1 (stereo not given) | inactive: 77%
Cc1cccc(Cn2c(SCc3ccc(C(=O)NC4CCCCC4)cc3)nc3cccnc32)c1 | inactive: 64%
COc1ccccc1CNC(=O)CCCn1c(=O)c2ccccc2n(Cc2ccccc2F)c1=O | inactive: 116%
COc1ccccc1NC(=O)CCNS(=O)(=O)c1ccc2c(c1)CCCC(=O)N2 | inactive: 81%
CCn1c(=O)cc(SCC(=O)N2CCN(c3cc(C)ccc3C)CC2)c2ccccc21 | inactive: 57%
C/C(=N/NC(=O)C(F)(F)F)c1cccs1 | inactive: 70%
CCOCN(C(=O)CSc1nc2ccccc2[nH]1)c1c(C)cccc1CC | inactive: 135%
CCOC(=O)c1c(C)oc2nc(C)nc(NCc3cccc(OC)c3)c12 | inactive: 72%
CCCCN(CC)C(=O)Cn1nc(C)c2c(C)n(-c3ccccc3)nc2c1=O | inactive: 101%
Nc1nnc(C2CCCC2)s1 | inactive: 77%
Cc1cc2c(C)nc3ccc(C(=O)O)cc3c2o1 | inactive: 71%
CCN(CC)C(=O)Cn1cc(SCC(=O)Nc2ccc(C)cc2)c2ccccc21 | inactive: 67%
O=C1CCCc2c1cc(C(=O)Nc1ccc(Cl)cn1)c(=O)n2-c1ccccc1 | inactive: 66%
Cc1ccc(C)c(N2CCN(C(=O)Cn3nc(Cc4cccnc4)c4ccccc4c3=O)CC2)c1 | inactive: 66%
COc1ccc(C)cc1NC(=O)C(NS(=O)(=O)c1cccc2nsnc12)c1ccccc1 (stereo not given) | inactive: 58%
CCOC(=O)N1CCc2c(sc3c2c(=O)n(-c2ccc(Cl)cc2)c(=O)n3CC(=O)Nc2ccccc2)C1 | inactive: 76%
